Common to all, as to experiment: biochemical
The target of assay [1] is T1, Y188L mutant reverse transcriptase (Human immunodeficiency virus type 1 BH10, UniProt P03366, Y787L).
T1 construct: mature chain of Gag-Pol polyprotein

In assay [2] the target is T2, P236L mutant reverse transcriptase (Human immunodeficiency virus type 1 BH10, UniProt P03366, P835L).
T2 construct: mature RT cut from Gag-Pol polyprotein

Assay [3] concerns the target T3, M184V mutant reverse transcriptase (Human immunodeficiency virus type 1 BH10, UniProt P03366, M783V).
T3 construct: mature RT cut from Gag-Pol polyprotein

The text below walks through data of patent publication US6140368A, “Naphthols useful in antiviral methods” (The Regents of the University of California, priority 1998, dated 2000).

With `O=C(Nc1ccc2c(O)cc(S(=O)(=O)O)cc2c1)Nc1ccc2c(O)cc(S(=O)(=O)O)cc2c1` [Compound 1, carbonyl-J], the remaining activity at 10 µM in assay [1] (10 μM) was determined as 23%; in assay [2] (10 μM) it was 35%; in assay [3] (10 μM) it was 42%. The remaining activity at 50 µM in assay [1] (50 μM) was found to be 2%; in assay [2] (50 μM), 4%; in assay [3] (50 μM) it was 5%.

In general, remaining activity refers to the activity still measured, relative to the control. Read a low remaining activity as a large loss of activity.
